# Results reported in PubChem BioAssay AID485344 (National Center for Advancing Translational Sciences (NCATS), 2010).
# In all, about 340,000 compounds went through this assay and about 6,900 (2%) were called active. No stated cut-off is given here; in the data, active means inhibition above about 30%; inactive means below that, where a call was filed. The list shows a part of the results, in another mix than the full data. Where no call is shown, the source filed none.
# Target: D(2) dopamine receptor (Homo sapiens) (UniProt P14416)
# Experiment: HTS Assay for Allosteric Antagonists of the Human D2 Dopamine Receptor: Primary Screen for Antagonists; further: 0% is about no effect
# Conditions: HEK293 TREx D2 cells, calcium flux, dopamine EC80; at 10 µM; stronger effect = higher value
# Method in brief: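 Calcium mobilization kinetics were recorded at 1 s intervals in tetracycline-induced HEK293 T-REx D2 cells, first for 180 s after compound addition and then 180 s after EC80 dopamine.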
# UniProt P14416, sequence (P14416 whole entry, looked up): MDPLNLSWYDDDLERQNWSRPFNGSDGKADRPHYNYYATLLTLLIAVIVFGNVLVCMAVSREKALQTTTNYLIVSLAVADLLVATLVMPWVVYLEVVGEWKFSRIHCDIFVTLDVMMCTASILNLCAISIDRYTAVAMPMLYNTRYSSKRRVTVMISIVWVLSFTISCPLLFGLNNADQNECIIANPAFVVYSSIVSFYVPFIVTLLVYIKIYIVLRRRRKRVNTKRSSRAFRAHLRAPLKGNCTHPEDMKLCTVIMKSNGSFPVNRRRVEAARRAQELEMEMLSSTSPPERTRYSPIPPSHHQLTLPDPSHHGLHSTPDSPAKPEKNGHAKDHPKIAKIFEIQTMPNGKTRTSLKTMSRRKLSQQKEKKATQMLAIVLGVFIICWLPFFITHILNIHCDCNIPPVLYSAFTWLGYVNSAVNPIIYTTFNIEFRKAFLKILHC
row,Structure (SMILES),inhibition
1,CC(=O)c1ccc(NC(=O)CSc2ccc(-c3cccs3)nn2)cc1,4.37%
2,CCOc1ccc(-c2nc(SCC(=O)c3ccccc3)n[nH]2)cc1,0.233%
3,CN(C)c1ccc(CNC(=O)c2cnc3sc(N4CCOCC4)nn3c2=O)cc1,3.7%
4,Brc1cccc(-c2nnc(CN3CCN(c4ccccn4)CC3)o2)c1,0.709%
5,Cc1ccc(S(=O)(=O)Cc2ccc(C(=O)NCCc3ccc(Cl)cc3)o2)cc1,-6.86%
6,O=C(Nc1ccc(C(F)(F)F)cc1Cl)c1ccc(Cn2cc(Br)cn2)o1,active: 37.2%
7,COCCCNC(=O)c1cnc2c(-c3ccc(F)cc3)c(C)nn2c1C,17.8%
8,CCOC(=O)C1CCN(C(c2cccc(F)c2)c2c(O)cc(C)n(Cc3ccco3)c2=O)CC1 (configuration not stated),5.12%
9,COc1ccc(-c2noc(N(c3cccc(Cl)c3)c3nc(-c4ccc(OC)c(OC)c4)no3)n2)cc1OC,-2.84%
10,CCOc1cccc(C(=O)N2CCC(c3nc4ccccc4s3)CC2)c1,10.5%
11,Cn1nc(-c2ccccc2F)c2cc(C(=O)NCCc3ccc(Cl)cc3)sc21,-5.96%
12,O=C(c1ccc(Br)cc1)N1CCN(CCc2ccncc2)CC1,-17.1%
13,O=C(COC(=O)c1cccnc1Cl)c1cccc(Cl)c1,active: 69.1%
14,CC(=O)NC1CC(=O)N(c2ccc3c(c2)OCCO3)C1 (configuration not stated),0.924%
15,Cc1ccc(-c2nc3cc(Cl)ccc3o2)cc1NC(=O)c1cc([N+](=O)[O-])ccc1N1CCOCC1,15.7%
16,CCC(=O)N1CCc2cc(Br)cc(S(=O)(=O)N3CCC(C(=O)Nc4ccccc4CC)CC3)c21,3.28%
17,COc1cccc(C2CC(=O)Nc3cc4c(cc32)OCO4)c1OC(C)C (configuration not stated),7.17%
18,Cc1nc(-c2ccccc2)sc1-c1ccc(SCC(=O)Nc2cccc(C(F)(F)F)c2)nn1,-7.11%
19,CC(C)Oc1ccc(CNC(=O)C2CCN(c3nc4ccccc4nc3C(F)(F)F)CC2)cc1,8.41%
20,CCC1Oc2ccc(C)cc2N(CC(=O)NCc2ccc(OC)cc2)C1=O (configuration not stated),23.9%
21,CCCCN1C(=O)c2[nH]nc(-c3ccccc3O)c2C1c1ccc(C(C)(C)C)cc1 (configuration not stated),4.19%

row,Structure (SMILES),inhibition
1,CCCn1c2ccccc2c2cnn(CC(=O)NCc3ccccc3Cl)c(=O)c21,24.2%
2,O=C(Nc1cccc(Cl)c1)c1ccc2nc(CCc3ccccc3)oc2c1,0.344%
3,O=c1oc2ccccc2cc1-c1nnc(Nc2ccc(Cl)cc2Cl)s1,-3.88%
4,CCOC(=O)c1c(C)n(S(=O)(=O)c2ccc(C)cc2C)c2ccc(NS(=O)(=O)c3ccc(C)cc3C)cc12,-5.68%
5,Cc1ccc(C2=Nc3ccccc3N(CC(=O)Nc3ccccc3F)C(=O)C2)cc1C,20.3%
6,COc1ccccc1Nc1sc(C(=O)c2ccc3c(c2)OCO3)c(N)c1S(=O)(=O)c1ccccc1,-15.6%
7,CCc1nn(CCCC(=O)N2CCN(c3cc(Cl)ccc3C)CC2)c(=O)c2cc3occc3n12,-5.79%
8,Fc1ccccc1N1CCN(Cc2cccnc2)CC1,active: 67.7%
9,COc1ccc(CC(=O)NC2CC(=O)N(c3cccc(F)c3)C2)cc1OC (configuration not stated),-4.41%
10,Cc1cc(C)nc(/N=C(\N)Nc2cccc(OCc3ccccc3)c2)n1,active: 62.7%
11,CC(=O)N1c2ccc(S(=O)(=O)N3CCCCCC3)cc2CC1C(=O)NC(C)C (configuration not stated),2.1%
12,CCOC(=O)c1c(C)sc(-c2c(-c3ccc4c(c3)OCCO4)[nH]c3c2c(=O)n(C)c(=O)n3C)c1O,1.15%
13,O=C(CN1CCC(O)(c2cccc(F)c2)CC1)NCCc1c[nH]c2ccccc12,active: 44.8%
14,CCOC(=O)N1CCc2c(sc3c2c(=O)n(Cc2ccccc2)c(=O)n3Cc2cc(C)ccc2C)C1,0.218%
15,Cc1nnc(C)c2c(C)n(-c3ccc4ncccc4c3)c(C)c12,active: 32.4%
16,CC(C)CC(=O)Nc1nc2c(s1)CC(C(C)(C)C)CC2 (configuration not stated),16.8%
17,CC(NCC(=O)Nc1cc(S(=O)(=O)N2CCOCC2)ccc1N1CCOCC1)c1ccco1 (configuration not stated),active: 63.6%
18,CCOc1ccc(CNC(=O)c2cccc(NC(=O)N3CCSc4ncccc43)c2)cc1,13.7%
19,CCn1c(C(=O)N2CCC(C(=O)N3CCN(c4cc(C)ccc4C)CC3)CC2)cc2sccc21,25.3%
20,CC(C)Cn1cc(NC(=O)Nc2cccc(C(F)(F)F)c2)c2ccccc2c1=O,-12.5%
21,CC(=O)N1CCc2cc(S(=O)(=O)NC(CC(C)C)C(=O)Nc3ccc(C(C)C)cc3)ccc21 (configuration not stated),2.63%

row,Structure (SMILES),inhibition
1,Cc1c(-c2nnc(SCC(=O)Nc3ccccc3F)o2)nnn1-c1ccc(F)cc1,1.66%
2,COc1ccc(CNC(=O)CCc2cn(C)c3ccccc23)cc1,-0.697%
3,COc1ccc(C(=O)NC2CC(=O)N(c3ccc4c(c3)OCCO4)C2)cc1 (configuration not stated),3.92%
4,COc1cccc(N2CCN(S(=O)(=O)c3cn(C)c(C)n3)CC2)c1,8.22%
5,COCCCNCCCCOc1ccc(Br)cc1Cl,active: 64.9%
6,Cc1cc(C)c2cc(C(=O)Nc3ccc(C)c(F)c3)[nH]c2c1,active: 39%
7,CCCNC(=O)c1cnn2c(C)c(Cc3c(C)cc(C)cc3C)c(C)nc12,-4.63%
8,COc1ccc(NC(=O)c2cc3nc(-c4ccc(Cl)c(Cl)c4)cc(C(F)(F)F)n3n2)c(OC)c1,-2.69%
9,O=C(c1cc2c(s1)CCCC2)N1CCN(Cc2ccc3c(c2)OCO3)CC1,active: 74.7%
10,COc1ccc(-n2nc3c(N4CCCC(C(=O)NCc5ccc(C)cc5)C4)nnc(C)c3c2C)cc1 (configuration not stated),-13.7%
11,Cc1sc2ncn(CC(=O)Nc3ccc(F)cc3F)c(=O)c2c1S(=O)(=O)N1CCC(C)CC1,-14%
12,CCOc1ccccc1NC(=O)N1CCC(n2c(C)nc3cccnc32)CC1,15.9%
13,CCC(C)Nc1ncnc2c1cnn2-c1ccc(F)cc1 (configuration not stated),-3.56%
14,COc1ccc(NS(=O)(=O)c2ccc3nc(-c4ccccc4)[nH]c3c2)cc1,6.79%
15,COc1ccc(NC(=O)CCCn2nc(C)c3sc4ccccc4c3c2=O)cc1,-10.9%
16,COc1ccc(S(=O)(=O)NCCSc2nnnn2-c2ccccc2)cc1,-17.2%
17,COc1ccc(CN2CCN(c3ccc(F)cc3)CC2)c(OC)c1OC,active: 33.3%
18,CCN(Cc1ccccc1)S(=O)(=O)c1ccc(-c2coc(C)n2)cc1,-4.89%
19,COc1ccc(-c2nc(CSCC(=O)N3CCN(c4ccc(F)cc4)CC3)c(C)o2)cc1,-11.1%
20,O=C(Cn1ncc2c3ccccc3n(Cc3ccc(F)cc3)c2c1=O)NCc1cccs1,-0.576%
